Source: the supplement of paper PMC8728848
The list shows a part of the results.

Assays:
Experiment in all cases: glycan array binding signal (z-score within array); higher = stronger binding
Conditions in all cases: glycan notation: IUPAC condensed, linker removed
Gal(a1-4)Gal(b1-4)GlcNAc = target: Gal(a1-4)Gal(b1-4)GlcNAc
In short: (§1)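 Glycan array data came from 3228 arrays in the Consortium for Functional Glycomics database, and only arrays with an available protein sequence were kept. Glycan names were put into IUPAC-condensed notation, and columns mapping to the same glycan were averaged. The binding signal is a within-array Z-score, averaged across arrays of one protein sequence run at different concentrations or buffers and across linkers. A negative Z-score can be read as non-binding.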

[1] = target: Gal(a1-4)Gal(b1-4)GlcNAc(b1-2)Man(a1-3)[Gal(a1-4)Gal(b1-4)GlcNAc(b1-2)Man(a1-6)]Man(b1-4)GlcNAc(b1-4)GlcNAc
In short: as §1

[2] = target: Gal(a1-4)Gal(b1-4)GlcNAc(b1-3)Gal(b1-4)Glc
In short: as §1

Gal(a1-4)GlcNAc = target: Gal(a1-4)GlcNAc
In short: as §1

Gal(a1-6)Glc = target: Gal(a1-6)Glc
In short: as §1

Gal(b1-2)Gal = target: Gal(b1-2)Gal
In short: as §1

Gal(b1-3)Gal = target: Gal(b1-3)Gal
In short: as §1

Gal(b1-3)Gal(b1-4)GlcNAc = target: Gal(b1-3)Gal(b1-4)GlcNAc
In short: as §1

[3] = target: Gal(b1-3)Gal(b1-4)GlcNAc(b1-2)Man(a1-3)[Gal(b1-3)Gal(b1-4)GlcNAc(b1-2)Man(a1-6)]Man(b1-4)GlcNAc(b1-4)GlcNAc
In short: as §1

Gal(b1-3)GalNAc = target: Gal(b1-3)GalNAc
In short: as §1

[4] = target: Gal(b1-3)GalNAc(a1-3)[Fuc(a1-2)]Gal(b1-4)Glc
In short: as §1

[5] = target: Gal(b1-3)GalNAc(a1-3)[Fuc(a1-2)]Gal(b1-4)GlcNAc
In short: as §1

[6] = target: Gal(b1-3)GalNAc(b1-3)Gal(a1-4)Gal(b1-4)Glc
In short: as §1

[7] = target: Gal(b1-3)GalNAc(b1-4)Gal(b1-4)Glc
In short: as §1

[8] = target: Gal(b1-3)GalNAc(b1-4)[Neu5Ac(a2-3)]Gal(b1-4)Glc
In short: as §1

Gal(b1-3)GlcNAc = target: Gal(b1-3)GlcNAc
In short: as §1

[9] = target: Gal(b1-3)GlcNAc(a1-3)Gal(b1-4)GlcNAc
In short: as §1

[10] = target: Gal(b1-3)GlcNAc(a1-6)Gal(b1-4)GlcNAc
In short: as §1

[11] = target: Gal(b1-3)GlcNAc(b1-2)Man(a1-3)[Gal(b1-3)GlcNAc(b1-2)Man(a1-6)]Man(b1-4)GlcNAc(b1-4)GlcNAc
In short: as §1

[12] = target: Gal(b1-3)GlcNAc(b1-2)Man(a1-3)[Gal(b1-3)GlcNAc(b1-2)Man(a1-6)]Man(b1-4)GlcNAc(b1-4)[Fuc(a1-6)]GlcNAc
In short: as §1

[13] = target: Gal(b1-3)GlcNAc(b1-2)Man(a1-3)[GlcNAc(b1-4)][Gal(b1-3)GlcNAc(b1-2)Man(a1-6)]Man(b1-4)GlcNAc(b1-4)GlcNAc
In short: as §1

[14] = target: Gal(b1-3)GlcNAc(b1-2)[Gal(b1-3)GlcNAc(b1-6)]Man(a1-6)[Gal(b1-3)GlcNAc(b1-2)Man(a1-3)]Man(b1-4)GlcNAc(b1-4)GlcNAc
In short: as §1

[15] = target: Gal(b1-3)GlcNAc(b1-3)Gal(b1-3)GlcNAc
In short: as §1

[16] = target: Gal(b1-3)GlcNAc(b1-3)Gal(b1-4)Glc
In short: as §1

[17] = target: Gal(b1-3)GlcNAc(b1-3)Gal(b1-4)GlcNAc
In short: as §1

[18] = target: Gal(b1-3)GlcNAc(b1-3)Gal(b1-4)GlcNAc(b1-6)[Gal(b1-3)GlcNAc(b1-3)]Gal(b1-4)Glc
In short: as §1

[19] = target: Gal(b1-3)GlcNAc(b1-3)Gal(b1-4)[Fuc(a1-3)]GlcNAc(b1-6)[Gal(b1-3)GlcNAc(b1-3)]Gal(b1-4)Glc
In short: as §1

[20] = target: Gal(b1-3)GlcNAc(b1-3)GalNAc
In short: as §1

[21] = target: Gal(b1-3)GlcNAc(b1-6)Gal(b1-4)GlcNAc
In short: as §1

[22] = target: Gal(b1-3)GlcNAc(b1-6)GalNAc
In short: as §1

B1: PRKCE (Homo sapiens), Q02156 (protein)
chain: MVVFNGLLKIKICEAVSLKPTAWSLRHAVGPRPQTFLLDPYIALNVDDSRIGQTATKQKTNSPAWHDEFVTDVCNGRKIELAVFHDAPIGYDDFVANCTIQFEELLQNGSRHFEDWIDLEPEGRVYVIIDLSGSSGEAPKDNEERVFRERMRPRKRQGAVRRRVHQVNGHKFMATYLRQPTYCSHCRDFIWGVIGKQGYQCQVCTCVVHKRCHELIITKCAGLKKQETPDQVGSQRFSVNMPHKFGIHNYKVPTFCDHCGSLLWGLLRQGLQCKVCKMNVHRRCETNVAPNCGVDARGIAKVLADLGVTPDKITNSGQRRKKLIAGAESPQPASGSSPSEEDRSKSAPTSPCDQEIKELENNIRKALSFDNRGEEHRAASSPDGQLMSPGENGEVRQGQAKRLGLDEFNFIKVLGKGSFGKVMLAELKGKDEVYAVKVLKKDVILQDDDVDCTMTEKRILALARKHPYLTQLYCCFQTKDRLFFVMEYVNGGDLMFQIQRSRKFDEPRSRFYAAEVTSALMFLHQHGVIYRDLKLDNILLDAEGHCKLADFGMCKEGILNGVTTTTFCGTPDYIAPEILQELEYGPSVDWWALGVLMYEMMAGQPPFEADNEDDLFESILHDDVLYPVWLSKEAVSILKAFMTKNPHKRLGCVASQNGEDAIKQHPFFKEIDWVLLEQKKIKPPFKPRIKTKRDVNNFDQDFTREEPVLTLVDEAIVKQINQEEFKGFSYFGEDLMP
glycan array binding signal (z-score) (Gal(a1-4)Gal(b1-4)GlcNAc): -0.379
glycan array binding signal (z-score) [1]: -0.363
glycan array binding signal (z-score) [2]: -0.141
glycan array binding signal (z-score) (Gal(a1-4)GlcNAc): -0.219
glycan array binding signal (z-score) (Gal(a1-6)Glc): 0.372
glycan array binding signal (z-score) (Gal(b1-2)Gal): -0.175
glycan array binding signal (z-score) (Gal(b1-3)Gal): -0.295
glycan array binding signal (z-score) (Gal(b1-3)Gal(b1-4)GlcNAc): -0.177
glycan array binding signal (z-score) [3]: -0.328
glycan array binding signal (z-score) (Gal(b1-3)GalNAc): -0.389
glycan array binding signal (z-score) [4]: -0.17
glycan array binding signal (z-score) [5]: -0.198
glycan array binding signal (z-score) [6]: -0.366
glycan array binding signal (z-score) [7]: -0.385
glycan array binding signal (z-score) [8]: -0.139
glycan array binding signal (z-score) (Gal(b1-3)GlcNAc): -0.364
glycan array binding signal (z-score) [9]: -0.29
glycan array binding signal (z-score) [10]: -0.301
glycan array binding signal (z-score) [11]: 0.131
glycan array binding signal (z-score) [12]: -0.306
glycan array binding signal (z-score) [13]: -0.364
glycan array binding signal (z-score) [14]: -0.379
glycan array binding signal (z-score) [15]: -0.417
glycan array binding signal (z-score) [16]: -0.1
glycan array binding signal (z-score) [17]: -0.361
glycan array binding signal (z-score) [18]: -0.234
glycan array binding signal (z-score) [19]: -0.277
glycan array binding signal (z-score) [20]: -0.357
glycan array binding signal (z-score) [21]: -0.374
glycan array binding signal (z-score) [22]: 0.309
